Results from PMC4336329 (PLoS ONE, 2015).
The campaign covered roughly 310,000 compounds. About 2,200 (0.71%) showed an effect of 50% or more. The effect is printed as a negative number. The list shows a part of the results.

Biological target: human ether-à-go-go-related gene (hERG) potassium channel (human, UniProt Q12809)
Experiment: primary screen, population patch clamp on CHO cells stably expressing hERG

human ether-à-go-go-related gene (hERG) potassium channel, sequence (Q12809 whole entry, looked up): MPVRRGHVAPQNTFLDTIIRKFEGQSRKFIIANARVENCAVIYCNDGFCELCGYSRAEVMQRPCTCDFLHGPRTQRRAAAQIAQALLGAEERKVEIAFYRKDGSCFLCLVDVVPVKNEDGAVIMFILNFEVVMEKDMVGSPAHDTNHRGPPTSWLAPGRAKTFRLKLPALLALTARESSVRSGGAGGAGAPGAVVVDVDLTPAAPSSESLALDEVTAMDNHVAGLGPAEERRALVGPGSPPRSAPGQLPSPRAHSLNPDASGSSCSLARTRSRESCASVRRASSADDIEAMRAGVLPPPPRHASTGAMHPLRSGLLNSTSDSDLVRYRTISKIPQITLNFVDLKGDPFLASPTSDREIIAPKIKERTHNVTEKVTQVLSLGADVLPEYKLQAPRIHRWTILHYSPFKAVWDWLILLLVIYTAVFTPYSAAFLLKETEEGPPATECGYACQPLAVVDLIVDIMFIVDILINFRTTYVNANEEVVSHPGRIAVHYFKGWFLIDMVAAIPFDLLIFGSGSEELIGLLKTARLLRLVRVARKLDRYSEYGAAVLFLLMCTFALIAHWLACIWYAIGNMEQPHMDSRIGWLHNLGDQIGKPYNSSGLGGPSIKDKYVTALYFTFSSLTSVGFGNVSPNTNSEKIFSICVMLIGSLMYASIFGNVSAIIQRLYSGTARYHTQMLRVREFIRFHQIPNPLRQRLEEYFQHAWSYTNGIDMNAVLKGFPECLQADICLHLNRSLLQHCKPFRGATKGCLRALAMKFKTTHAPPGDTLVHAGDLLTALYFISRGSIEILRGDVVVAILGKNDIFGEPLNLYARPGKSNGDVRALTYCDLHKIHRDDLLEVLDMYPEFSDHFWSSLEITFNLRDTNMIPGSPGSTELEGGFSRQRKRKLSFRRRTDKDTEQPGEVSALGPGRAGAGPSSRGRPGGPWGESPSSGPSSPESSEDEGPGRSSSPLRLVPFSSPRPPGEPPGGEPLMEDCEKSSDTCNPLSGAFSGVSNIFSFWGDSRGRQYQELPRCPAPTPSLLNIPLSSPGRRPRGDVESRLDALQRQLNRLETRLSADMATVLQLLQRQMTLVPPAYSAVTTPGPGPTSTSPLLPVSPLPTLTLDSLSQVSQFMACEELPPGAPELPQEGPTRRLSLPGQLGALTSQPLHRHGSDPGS

Structure (SMILES) | hERG current change (%, negative = inhibition) at 1uM [%]
NC(=O)CS(=O)(=O)c1nc2ccccc2n1Cc1ccccn1 | 13.1
C=CC[n+]1c(-c2ccc(OCC)cc2)csc1NNC(=O)Nc1ccccc1.[Br-] | 17.8
CCC(C(=O)NCc1ccco1)N(C(=O)CNS(=O)(=O)c1ccccc1)c1ccc(OC)cc1 (centres unmarked) | 1.95
CC(=O)Nc1ccc(-c2csc(NC(=O)C3=COCCO3)n2)cc1 | 3.41
Fc1ccc(COc2ccccc2-c2ccnc3ncnn23)cc1 | 0.0386
CC(=O)N1CCc2cc(S(=O)(=O)NCCCOC(C)C)ccc21 | 15.6
CC(=O)c1cn(CC(=O)NCc2ccc3c(c2)OCO3)c2ccccc12 | 5.95
CC1Sc2ccc(S(=O)(=O)CCC(=O)NC(C)c3ccccc3)cc2NC1=O (centres unmarked) | 14.7
CCC(=O)Nc1nc2ccccc2n1Cc1ccc(C)cc1 | 3.76
Cl.O=C(NCCCN1CCOCC1)c1cccnc1 | 12.3
COc1ccc(N2CCN(C(CNC(=O)COc3ccccc3)c3ccco3)CC2)cc1 (centres unmarked) | -10.8
COc1ccc(-c2noc(CNC(=O)CCN3C(=O)[C@H]4CC=CC[C@H]4C3=O)n2)cc1 | 11.5
O=C(Cc1n[nH]c(=O)c2ccccc12)Nc1ccc(-c2nnc3n2CCCCC3)cc1 | -5.12
COc1ccc(S(N)(=O)=O)cc1C(=O)OCCCOC(=O)c1cc(S(N)(=O)=O)ccc1OC | 17.1
O=S(=O)(NCC1CCCO1)c1ccc(Cl)c(C(F)(F)F)c1 (centres unmarked) | -0.915
CCC(C(=O)OC)n1cnc2scc(-c3ccc(C)cc3)c2c1=O (centres unmarked) | 9.18
Cc1ccc(OCC(=O)N2CCN(C(=O)CCC3CCCC3)CC2)cc1 | -29.1
O=C(c1ccco1)N1CCN(c2ccccc2F)CC1 | 5.1
COc1cccc(CN2CCCC(N3CCc4ccccc4C3)C2)c1O (centres unmarked) | 9.35
O=C(O)/C(=C\c1cccc(O)c1)c1ccc(S(=O)(=O)N2CCCC2)s1 | -9.68
CC(Sc1nc(N)cc(=O)[nH]1)C(=O)NNC(=O)c1cccc(Cl)c1 (centres unmarked) | 4.15
O=C(COc1ccc2ccccc2c1)NNC(=O)Nc1ccccc1F | 13.2

Structure (SMILES) | hERG current change (%, negative = inhibition) at 1uM [%]
CC(C)c1ccc(Nc2c([N+](=O)[O-])c(=O)n(C)c3ccccc23)cc1 | 9.15
O=C(NC1CC1)C1CCN(C2CCN(Cc3ccccc3C(F)(F)F)CC2)CC1 | -7.23
O=c1cnc(-c2ccc(Cl)cc2)cn1O | 24.2
O=C(Nc1ccc2oc(-c3ccncc3)nc2c1)c1ccc([N+](=O)[O-])o1 | 3.38
CCn1ncc(NC(=S)Nc2ccc3c(c2)OCO3)c1C(N)=O | 27
O=c1c2ccccc2oc2nc(-c3cccs3)n(CCc3ccccc3)c(=O)c12 | 2.24
Cc1cc(C(=O)CSc2nc3ccccc3n2CCC#N)c(C)n1Cc1cccs1 | -3.7
CC1CCCC(NC(=O)COC(=O)Cc2ccsc2)C1C (centres unmarked) | -7.66
CCOc1ccc(C(=O)Nc2ccccc2C(=O)O)cc1 | 6.67
COc1ccc2oc(C(=O)OCC(=O)NCC3CCCO3)c(C)c2c1 (centres unmarked) | 14.9
Cc1cc(N)n(-c2ccc(S(N)(=O)=O)cc2[N+](=O)[O-])n1.O=C(O)C(F)(F)F | 22.6
CC(C)Cc1nc(N2CCN(C(=O)c3ccco3)CC2)c(C#N)c2c1CCC2 | 4.55
COc1ccc(C(=O)Nc2ccc([N+](=O)[O-])cn2)cc1OC | 5.65
COc1ccc(/C(O)=C2\C(=O)C(=O)N(c3cc(C)on3)C2c2cccc(OC)c2OC)cc1C (centres unmarked) | 5.09
COC(=O)c1ccc(OCC(O)CN2CCN(CC(O)COc3ccc(C(=O)OC)cc3)CC2)cc1 (centres unmarked) | -25.6
CCN(CC)S(=O)(=O)c1ccc2c(c1)c(=O)c(C(=O)N1CCN(c3ccccn3)CC1)cn2C | 1.05
COc1ccc(CNC(=O)COc2cc3c(c4oc(=O)cc(C)c24)CCC(C)(C)O3)cc1OC | 11.5
CCc1nc(C(N)=O)c2[nH]c(=O)n(-c3ccccc3F)c2n1 | 22.7
Cc1ccc(C(=O)O/N=C(\N)c2cccc([N+](=O)[O-])c2)cc1 | 5.21
Cc1ccc(S(=O)(=O)N(CC(=O)N2CCOCC2)c2ccc(C(C)C)cc2)cc1 | 8.37
COc1ccc(COC(=O)C2CC(=O)N(Cc3ccc(C)cc3)C2)cc1 (centres unmarked) | -12.4
CCc1ccccc1N(C(C)=O)c1nc(CCl)cs1 | 10.3
